According to US20190315859A1 (EUREKA THERAPEUTICS, published 2019):

Target: T1, Recombinant human CD19 ECD-Fc fusion protein (human, UniProt P15391 20-291, biotinylated for the Octet assay (sites not given); not biotinylated when coated for ELISA)
T1 construct: domain: Fc of human IgG1 lacking the CH1 domain and including the hinge region; also called human CD19-Fc; hCD19 ECD-Fc; not shown: Fc of human IgG1 lacking the CH1 domain and including the hinge region
T1 sequence: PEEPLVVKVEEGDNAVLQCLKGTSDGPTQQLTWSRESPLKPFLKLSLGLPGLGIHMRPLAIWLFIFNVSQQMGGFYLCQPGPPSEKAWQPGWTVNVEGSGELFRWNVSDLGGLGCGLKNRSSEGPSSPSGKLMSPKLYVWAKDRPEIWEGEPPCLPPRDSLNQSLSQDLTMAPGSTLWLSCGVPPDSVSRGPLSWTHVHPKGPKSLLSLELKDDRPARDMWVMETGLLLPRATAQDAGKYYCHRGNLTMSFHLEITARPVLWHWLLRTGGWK
Assay: ELISA, plate coated with human CD19 ECD-Fc, phage clone detected with HRP-conjugated anti-M13 antibody, OD450
Description: Individual phage clones from enriched phage display panning pools were incubated in the coated plates. Binding of the phage clones was detected by HRP-conjugated anti-M13 antibodies and developed using HRP substrate. The absorbance was read at 450 nm.

B1: 61 (scFv)
scFv (VL-linker-VH), shown on M13 phage: [about 100 residues left out here]SRGGGGSGGGGSGGGGSLEMAEVQLVESGGGLVQPGGSLRLSCAASGFTVSSNYMSWVRQAPGKGLEWVSVIYSGGSTYYADSVKGRFTISRDNSKNTLYLQMNSLRAEDTAVYYCARERGMGYAFDIWGQGTMVTVSS
notes: hit from protein screening (ELISA); also called clone 61; anti-human CD19 scFv phage clone 61
  binding result: binds
